The list shows a part of the results. Many values rest on one well or one pass, so single values are uncertain.
Test system: A375
Test: cell count relative to DMSO control; melanoma cells; higher = more viable cells
Conditions: library dose: standard library concentration; 72 h
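Further: cells treated in 1,536-well plates, then fixed and DAPI-stained, with nuclei counted from automated high-throughput microscope images.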

How did the cell count turn out when `COc1cc([C@@H]2c3cc4c(cc3[C@@H](O[C@@H]3O[C@@H]5CO[C@@H](C)O[C@H]5[C@H](O)[C@H]3O)[C@H]3COC(=O)[C@H]23)OCO4)cc(OC)c1O` [etoposide] + C[C@]1(c2nc3c(C(N)=O)cccc3[nH]2)CCCN1 [Veliparib] (first compound 0.1 µM, partner dose 7 µM) was run?
Its cell count is 81.7%.

For `C[C@]1(O)C[C@@H](c2nc(-c3ccc4ccc(-c5ccccc5)nc4c3)c3c(N)nccn32)C1` + CC1(C)NC(=O)N(c2ccc([N+](=O)[O-])c(C(F)(F)F)c2)C1=O [nilutamide] (first compound 2 µM, partner dose 5 µM), which cell count is on record?
Its cell count is 80.9%.

For `Cn1cnc2c(F)c(Nc3ccc(Br)cc3Cl)c(C(=O)NOCCO)cc21` [selumetinib] + O=C(CCCCCCC(=O)Nc1ccccc1)NO [vorinostat] (first compound 0.075 µM, partner dose 0.4 µM), which cell count is on record?
Its cell count is 92.4%.

`C[C@]1(O)C[C@@H](c2nc(-c3ccc4ccc(-c5ccccc5)nc4c3)c3c(N)nccn32)C1` + Clc1ccc(Nc2nnc(Cc3ccncc3)c3ccccc23)cc1 [vatalanib] (first compound 2 µM, partner dose 10 µM) was tested. Which cell count did it give?
Its cell count is 83%.

`CCN(CC)CCNC(=O)c1c(C)[nH]c(/C=C2\C(=O)Nc3ccc(F)cc32)c1C` [sunitinib] + O=C(Nc1cccc(Cl)c1)Nc1ncc(CCNc2ncnc3ccsc23)s1 [SNS314] (first compound 2 µM, partner dose 0.004 µM) was tested. Which cell count did it give?
The cell count was 99.6%.

For `COc1cc([C@@H]2c3cc4c(cc3[C@@H](O[C@@H]3O[C@@H]5CO[C@@H](C)O[C@H]5[C@H](O)[C@H]3O)[C@H]3COC(=O)[C@H]23)OCO4)cc(OC)c1O` [etoposide] + C[C@@H](N)c1ccc(C(=O)Nc2ccnc3[nH]ccc23)cc1 [RKI983] (first compound 0.1 µM, partner dose 2 µM), which cell count is on record?
Its cell count is 69.2%.

Which cell count does the source give for `CCN(CC)CCNC(=O)c1c(C)[nH]c(/C=C2\C(=O)Nc3ccc(F)cc32)c1C` [sunitinib] + C[C@]1(c2nc3c(C(N)=O)cccc3[nH]2)CCCN1 [Veliparib] (first compound 2 µM, partner dose 7 µM) here?
Its cell count is 113%.

Which cell count does the source give for `C[C@]1(O)C[C@@H](c2nc(-c3ccc4ccc(-c5ccccc5)nc4c3)c3c(N)nccn32)C1` + COc1cc(Nc2ncc(F)c(Nc3ccc4c(n3)NC(=O)C(C)(C)O4)n2)cc(OC)c1OC [Tamatinib] (first compound 2 µM, partner dose 2 µM) here?
Its cell count is 83.6%.

Which cell count does the source give for `Cn1cnc2c(F)c(Nc3ccc(Br)cc3Cl)c(C(=O)NOCCO)cc21` [selumetinib] + Cn1nnc2c(C(N)=O)ncn2c1=O [temozolomide] (first compound 0.075 µM, partner dose 10 µM) here?
The cell count was 100%.

Which cell count does the source give for `COc1cc([C@@H]2c3cc4c(cc3[C@@H](O[C@@H]3O[C@@H]5CO[C@@H](C)O[C@H]5[C@H](O)[C@H]3O)[C@H]3COC(=O)[C@H]23)OCO4)cc(OC)c1O` [etoposide] + C[C@]1(O)C[C@@H](c2nc(-c3ccc4ccc(-c5ccccc5)nc4c3)c3c(N)nccn32)C1 [OSI906] (first compound 0.1 µM, partner dose 2 µM) here?
The cell count was 56.3%.

`CCN(CC)CCNC(=O)c1c(C)[nH]c(/C=C2\C(=O)Nc3ccc(F)cc32)c1C` [sunitinib] + CN1CCN(c2ccc3nc(-c4c(N)c5c(F)cccc5[nH]c4=O)[nH]c3c2)CC1 [Dovitinib] (first compound 2 µM, partner dose 0.5 µM) was tested. Which cell count did it give?
The cell count was 94.3%.

With `C[C@]1(O)C[C@@H](c2nc(-c3ccc4ccc(-c5ccccc5)nc4c3)c3c(N)nccn32)C1` + Nc1ncn([C@H]2C[C@H](O)[C@@H](CO)O2)c(=O)n1 [decitabine] (first compound 2 µM, partner dose 0.5 µM) as the compound, how does the cell count read?
Its cell count is 78.6%.

`CCN(CC)CCNC(=O)c1c(C)[nH]c(/C=C2\C(=O)Nc3ccc(F)cc32)c1C` [sunitinib] + OCc1c[nH]c2ccccc12 [Indole-3-carbinol] (first compound 2 µM, partner dose 4 µM) was tested. Which cell count did it give?
Its cell count is 109%.

For `COc1cc([C@@H]2c3cc4c(cc3[C@@H](O[C@@H]3O[C@@H]5CO[C@@H](C)O[C@H]5[C@H](O)[C@H]3O)[C@H]3COC(=O)[C@H]23)OCO4)cc(OC)c1O` [etoposide] + CN(c1ncccc1CNc1nc(Nc2ccc3c(c2)CC(=O)N3)ncc1C(F)(F)F)S(C)(=O)=O [PF562271] (first compound 0.1 µM, partner dose 0.4 µM), which cell count is on record?
The cell count was 60.8%.

With `Cn1cnc2c(F)c(Nc3ccc(Br)cc3Cl)c(C(=O)NOCCO)cc21` [selumetinib] + Cc1ccc(NC(=O)c2cccc(N(C)C)c2)cc1NC(=O)c1ccc(O)cc1 [ZM336372] (first compound 0.075 µM, partner dose 10 µM) as the compound, how does the cell count read?
The cell count was 88.6%.

With `C[C@]1(O)C[C@@H](c2nc(-c3ccc4ccc(-c5ccccc5)nc4c3)c3c(N)nccn32)C1` + Nc1cccc2c1CN(C1CCC(=O)NC1=O)C2=O [lenalidomide] (first compound 2 µM, partner dose 5 µM) as the compound, how does the cell count read?
Its cell count is 72.4%.

Which cell count does the source give for `C[C@]1(O)C[C@@H](c2nc(-c3ccc4ccc(-c5ccccc5)nc4c3)c3c(N)nccn32)C1` + CNC(=O)c1cc(Oc2ccc(NC(=O)Nc3ccc(Cl)c(C(F)(F)F)c3)cc2)ccn1 [sorafenib] (first compound 2 µM, partner dose 2 µM) here?
Its cell count is 115%.

For `COc1cc([C@@H]2c3cc4c(cc3[C@@H](O[C@@H]3O[C@@H]5CO[C@@H](C)O[C@H]5[C@H](O)[C@H]3O)[C@H]3COC(=O)[C@H]23)OCO4)cc(OC)c1O` [etoposide] + COC(=O)c1sccc1S(=O)(=O)Nc1ccc(Nc2ccccc2)cc1OC [GSK0660] (first compound 0.1 µM, partner dose 5 µM), which cell count is on record?
Its cell count is 81.8%.

Which cell count does the source give for `Cn1cnc2c(F)c(Nc3ccc(Br)cc3Cl)c(C(=O)NOCCO)cc21` [selumetinib] + CS(=O)(=O)c1ccc(C(=O)Nc2ccc(Cl)c(-c3ccccn3)c2)c(Cl)c1 [vismodegib] (first compound 0.075 µM, partner dose 5 µM) here?
The cell count was 103%.

How did the cell count turn out when `COc1cc([C@@H]2c3cc4c(cc3[C@@H](O[C@@H]3O[C@@H]5CO[C@@H](C)O[C@H]5[C@H](O)[C@H]3O)[C@H]3COC(=O)[C@H]23)OCO4)cc(OC)c1O` [etoposide] + Cc1ccc(NC(=O)c2cccc(N(C)C)c2)cc1NC(=O)c1ccc(O)cc1 [ZM336372] (first compound 0.1 µM, partner dose 10 µM) was run?
Its cell count is 72.7%.

Which cell count does the source give for `COc1cc([C@@H]2c3cc4c(cc3[C@@H](O[C@@H]3O[C@@H]5CO[C@@H](C)O[C@H]5[C@H](O)[C@H]3O)[C@H]3COC(=O)[C@H]23)OCO4)cc(OC)c1O` [etoposide] + Cn1c(=O)n(-c2ccc(C(C)(C)C#N)cc2)c2c3cc(-c4cnc5ccccc5c4)ccc3ncc21 [NVP-BEZ235] (first compound 0.1 µM, partner dose 0.02 µM) here?
Its cell count is 108%.

`COc1cc([C@@H]2c3cc4c(cc3[C@@H](O[C@@H]3O[C@@H]5CO[C@@H](C)O[C@H]5[C@H](O)[C@H]3O)[C@H]3COC(=O)[C@H]23)OCO4)cc(OC)c1O` [etoposide] + COc1ccc(C2=N[C@@H](c3ccc(Cl)cc3)[C@@H](c3ccc(Cl)cc3)N2C(=O)N2CCNC(=O)C2)c(OC(C)C)c1 [Nutlin-3] (first compound 0.1 µM, partner dose 0.5 µM) was tested. Which cell count did it give?
Its cell count is 75.4%.

With `CCN(CC)CCNC(=O)c1c(C)[nH]c(/C=C2\C(=O)Nc3ccc(F)cc32)c1C` [sunitinib] + Cn1c(Nc2ccc(C(F)(F)F)cc2)nc2cc(Oc3ccnc(-c4ncc(C(F)(F)F)[nH]4)c3)ccc21 [CHIR265] (first compound 2 µM, partner dose 0.4 µM) as the compound, how does the cell count read?
The cell count was 57.1%.

How did the cell count turn out when `COc1cc([C@@H]2c3cc4c(cc3[C@@H](O[C@@H]3O[C@@H]5CO[C@@H](C)O[C@H]5[C@H](O)[C@H]3O)[C@H]3COC(=O)[C@H]23)OCO4)cc(OC)c1O` [etoposide] + O=C(Nc1cccc(Cl)c1)Nc1ncc(CCNc2ncnc3ccsc23)s1 [SNS314] (first compound 0.1 µM, partner dose 0.004 µM) was run?
Its cell count is 66.4%.

`CCN(CC)CCNC(=O)c1c(C)[nH]c(/C=C2\C(=O)Nc3ccc(F)cc32)c1C` [sunitinib] + Cn1cncc1[C@@](N)(c1ccc(Cl)cc1)c1ccc2c(c1)c(-c1cccc(Cl)c1)cc(=O)n2C [tipifarnib] (first compound 2 µM, partner dose 0.05 µM) was tested. Which cell count did it give?
Its cell count is 93.2%.
